Source: the RNAGym collection of RNA variant scans (doi:10.7554/elife.90254)
The source gives no read counts; variants with many changes may rest on few reads.

B1: LINE1-mini (parent)
chain: GGCAGAGCUCAACACAGCGUGGCAAAGUGGCUGUGGCUAGACUGCC

Variants of: B1
Experiment: self-cleavage, relative activity (ratio to wild type); higher = more cleavage; in vitro, sequencing; the parent is a self-cleaving ribozyme
A4C C18G U34C gave a self-cleavage of 0.05. For G7A G17A G22A U28G, the self-cleavage was 0.14. Work on G1A C3U C18A yielded a self-cleavage of 0.1. Variant G2A C8A G35U has a self-cleavage of 0.07. Work on G19A G40A C42A yielded a self-cleavage of 0.1. For C3A A6C C37G U38C, the self-cleavage was 0.27. In the case of G7C C13G G22A, the self-cleavage is reported as 0.1. Work on G5U C18U G27A G35A yielded a self-cleavage of 0.09. G7U G17A U34G G36U C37A showed a self-cleavage of 0.03. Variant C23G U28C C37U has a self-cleavage of 0.02. For G21A A25G G27A U32G A39G, the self-cleavage was 0.1. In the case of G17A G21A C46U, the self-cleavage is reported as 0.08. For A11C G29C G36A, the self-cleavage was 0.01. A4G U9C A11U A24C G40A A41U gave a self-cleavage of 0.02. Work on U9G G27U C42A yielded a self-cleavage of 0.2. G19A A26U G35A C37G showed a self-cleavage of 0.04. Variant U20C G21C U38A has a self-cleavage of 0.07. With G2C A4G C13U A41U the self-cleavage was 0.02. In the case of C8G C10A U34G, the self-cleavage is reported as 0.01. Work on C15A G21U G35A yielded a self-cleavage of 0.04. For C10A G17U C31G, the self-cleavage was 0.02. In the case of G5A C13U A26C G29A C37U, the self-cleavage is reported as 0.04. Variant A14C G19U G30A has a self-cleavage of 0.05. A4U G7C C23A G33A gave a self-cleavage of 0.17. Variant C10A A14U C15A G21C U34C C46A has a self-cleavage of 0.02. With G5U C23G G44U the self-cleavage was 0.05. With G7U G19U A26U G40U the self-cleavage was 0.29. In the case of C3G G27U G44A C46A, the self-cleavage is reported as 0.09. In the case of U32A A41G G44U, the self-cleavage is reported as 0.04. Work on C8A C18U G22U U38C yielded a self-cleavage of 0.14. With G1A G22C C37G the self-cleavage was 0.53. For G5A A16G G19A C23U G29A U43G C46U, the self-cleavage was 0. With A14G U32C G40U the self-cleavage was 0.01. A6U G7U G22A A25C U28A G29C G44A C46G gave a self-cleavage of 0.01. A4G A14C G19C C23G G35U A39G showed a self-cleavage of 0.01. G5U C23G C42G gave a self-cleavage of 0.09. For G5C U28G U34C, the self-cleavage was 0.01. For G1A A12C U34G C37A A39G C46G, the self-cleavage was 0.03. With G1A A14U A39C the self-cleavage was 0.08. Work on C8G G22A C37U U38C A39G yielded a self-cleavage of 0. For A24G G27C U43G G44C, the self-cleavage was 0.04. Variant U9C A11C C13A C31U U32C has a self-cleavage of 0.13. With G29U C31U U34C the self-cleavage was 0.02. For G1C C13A U32C C37U, the self-cleavage was 0.01. For A26U U32C C42G, the self-cleavage was 0.09. A4G U28C G29U G40A showed a self-cleavage of 0.18. Work on U9G C15A C37G yielded a self-cleavage of 0.07. Variant G21U C23U A24U has a self-cleavage of 1.11. G7A C15U C18U C31U gave a self-cleavage of 0.08. With G7A G17C U28A G29U U32A the self-cleavage was 0.13. Variant A12U C31G C45A has a self-cleavage of 0.04. Variant A12C A14U C18A G22U has a self-cleavage of 0.04. Work on C3U C18A A26G C42G G44A yielded a self-cleavage of 0.03. G2U A4G G17A G19U G33A A41G gave a self-cleavage of 0.13. C18U U28G C37U G40A C45U gave a self-cleavage of 0.34. In the case of C8G G17C U43G, the self-cleavage is reported as 0.11. C23A A24U A25G gave a self-cleavage of 0.62. G17C C23A G29U U43A showed a self-cleavage of 0.02. G2U A11G G17A gave a self-cleavage of 0. For G5A C8A A12U G17C A25G G35A, the self-cleavage was 0.18. For A16C G27U G30U U34A, the self-cleavage was 0.07. G7A A25C A26U U32C showed a self-cleavage of 0.42. Work on G5U U34C A39C G44U yielded a self-cleavage of 0.01. Variant C3U G35C C45G has a self-cleavage of 0.05. G17A G21C G29U showed a self-cleavage of 0.09. Work on G2C A12G G21C C31G yielded a self-cleavage of 0.05. Work on C8U C13G A16U yielded a self-cleavage of 0.13. With U20C A25U A39U the self-cleavage was 0.49. Work on A11G A12U G22C C31A U32G C37U U43A yielded a self-cleavage of 0. With G21U U32G G44U C45G the self-cleavage was 0.07. In the case of G19A G27U A39U A41C C46A, the self-cleavage is reported as 0.02. With A16G A25G G30U C42G the self-cleavage was 0.01. With C3G G7C C18A the self-cleavage was 0.05. G7U C8A C10A G17A G21C showed a self-cleavage of 0.01. In the case of G2C C3U A6U G21A C23G C45G, the self-cleavage is reported as 0.42. U9A C15A G40U gave a self-cleavage of 0.15. Work on C10G A11C C18G G40U yielded a self-cleavage of 0. In the case of A6G G7C A14U C37U C42A G44A, the self-cleavage is reported as 0.11. A14C C37A U38C A41U gave a self-cleavage of 0. In the case of C10U C15U G22C C42A U43A, the self-cleavage is reported as 0. G5U C18G C31U U43C C45G gave a self-cleavage of 0.07. With A6U C10A G22C C42A the self-cleavage was 0.03. For C18A C23A G33A U34A A39G, the self-cleavage was 0.01.
